Over roughly 33,000 sequences, “E-score (-0.5 to 0.5)” has its median near -0.041; the highest 2% begin near 0.37. Some of the results follow.
What follows are sequences tested against T1, Ecm22 (UniProt Q05958) (assay: PBM E-score (8-mer binding enrichment) (E-score (-0.5 to 0.5)); higher = stronger / more preferred TF binding; most listed sequences are background and not binding sites). Conditions: protein concentration: 200 nM; construct: GST-full length.
T1 sequence: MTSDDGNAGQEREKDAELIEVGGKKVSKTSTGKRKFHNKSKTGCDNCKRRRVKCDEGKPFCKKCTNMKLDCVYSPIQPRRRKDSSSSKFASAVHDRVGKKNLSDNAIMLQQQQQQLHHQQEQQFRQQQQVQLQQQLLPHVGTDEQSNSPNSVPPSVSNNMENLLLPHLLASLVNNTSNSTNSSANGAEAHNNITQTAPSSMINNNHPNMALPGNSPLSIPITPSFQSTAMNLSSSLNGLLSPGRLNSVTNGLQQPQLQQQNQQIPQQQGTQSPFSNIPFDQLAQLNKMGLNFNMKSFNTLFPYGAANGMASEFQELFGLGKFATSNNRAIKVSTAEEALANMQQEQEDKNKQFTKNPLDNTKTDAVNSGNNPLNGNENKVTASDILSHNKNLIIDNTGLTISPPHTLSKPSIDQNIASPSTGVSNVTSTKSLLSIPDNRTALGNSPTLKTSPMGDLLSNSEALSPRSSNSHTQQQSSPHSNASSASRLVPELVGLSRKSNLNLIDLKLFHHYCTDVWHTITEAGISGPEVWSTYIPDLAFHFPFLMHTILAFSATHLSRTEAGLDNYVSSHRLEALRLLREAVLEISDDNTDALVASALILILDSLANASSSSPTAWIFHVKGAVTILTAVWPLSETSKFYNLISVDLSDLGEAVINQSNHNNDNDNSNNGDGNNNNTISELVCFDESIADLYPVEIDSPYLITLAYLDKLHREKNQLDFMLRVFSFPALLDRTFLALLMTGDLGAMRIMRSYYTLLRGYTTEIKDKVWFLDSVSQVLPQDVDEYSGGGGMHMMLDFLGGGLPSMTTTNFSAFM
Experimental: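 Universal 'all 10-mer' protein binding microarrays (Agilent AMADID 015681) probed with GST-tagged S. cerevisiae TFs (full-length or DBD) made by in vitro transcription/translation (PURExpress), about 100-200 nM. Bound TF was detected with fluorescent anti-GST. Each ungapped 8-mer (which stands for itself and its reverse complement) is scored by the PBM enrichment score (E-score), a modified Wilcoxon-Mann-Whitney statistic from -0.5 to +0.5, computed with the Universal PBM Analysis Suite. Scale: above 0.35 generally sequence-specific binding.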

Sequence	PBM E-score
AACCCCTC	-0.173
ACCTTCCT	-0.175
CCGTAGAC	-0.0305
CAATAACG	0.0641
TATATTCA	0.173
GTATTGCA	-0.0224
CCAAGTGG	-0.168
CCCGATAA	0.039
TCTGTGAA	-0.0649
TAGTACCA	-0.124
CAGTTATA	0.027
CGCTCGGA	0.252
ATCCAAAC	0.0907
CGGCGCGC	0.154
AACCAGCC	-0.101
AGATTCAC	-0.0229
CAAAAAAA	-0.147
CATCAGCG	-0.105
ACGTGTTC	-0.0369
TACGCTAA	0.123
TATATGGA	-0.0455
AGTTCCAC	0.0665
CGTCCGTA	0.295
ACCTAGAT	-0.0752
CAACAATC	0.0154

Sequence	PBM E-score
CTTGTCCA	-0.188
CTTATTTA	0.099
TAGGCCGA	-0.143
AAAAGGTC	0.00104
CAACATGC	0.122
CTGTTTTA	-0.0614
CGAGTGGA	0.188
GCACCGGA	0.174
CCAATACC	-0.128
CACGTACG	0.338
AGACGGTC	-0.121
TGAGAGAA	-0.0473
CAACTCGC	0.236
CCCTCTAA	-0.292
ATAGCGAA	0.0726
GTCACAGA	-0.0622
CCGCGCCG	0.0837
CCCGAGTC	0.0619
ATGATGCG	0.0273
CAACGTGA	-0.187
TACGTTCA	0.276
CACACCAC	0.0355
AATCCTTC	-0.117
GTTTGTTA	0.225
ATGCGCGG	-0.136

Sequence	PBM E-score
AAACTGCG	-0.0389
ATGGCAGA	0.0231
ATTGATCG	0.139
CCATCTTC	-0.0447
TCACAGGA	-0.0635
TACATATA	0.142
AGACTAGA	-0.0514
TGTTGTAA	0.00693
ACACCAAC	-0.129
GGTCCGAA	0.193
ACGCTACA	-0.0355
GCGGAACC	-0.0442
ATAACTTG	-0.0707
TCCGTCAA	-0.0989
ATTTACAA	0.0448
AATAACCG	0.119
AATTTCAG	-0.252
CCTTGCCC	-0.0702
AGCCAAGG	-0.251
AAAACTTA	0.0265
CTAGTCGC	-0.0918
CTAGACAA	-0.156
CAGGAACA	-0.0447
ACGGCCCC	-0.2
ACAGCAAG	0.0222

Sequence	PBM E-score
GAAGCGGC	-0.0234
AACTAGCC	-0.299
GACGTGAA	-0.0611
AGGGGGGC	-0.266
CTACTCGA	0.2
AATTAGCA	-0.00156
TCACCGAA	-0.039
ACGTGATA	0.00631
AAAAAAGA	-0.283
CATACTCG	0.258
AGACAGCA	-0.143
ACCGAAAG	0.0863
AAGTGTTA	-0.0955
TACTACAA	0.0867
AGCGGACA	0.124
ACATAAAC	0.215
ATTAACGC	0.122
TCGCCAGA	0.00989
AATAAACC	0.165
AATATAAC	0.00669
AAATGGTT	-0.141
CGCCCGAC	0.0719
ACACGAGA	0.265
CAGTCCAA	-0.301
ATGGGCCA	-0.115

Sequence	PBM E-score
CTAGTACC	-0.121
ACGAGAAG	0.313
GTAGGATA	-0.0675
AATCCACG	-0.0999
TAAGCATA	0.121
ATGAAGTC	-0.185
GCACGTCC	-0.0435
CGCGCGCA	0.203
ATCCTCGC	0.193
AACGGGAC	0.258
TGTTCTAA	-0.023
CACCCCGA	-0.0815
ACTATACC	0.0402
CGTACGGA	0.373
CCTAGAGG	-0.226
AAGTTACT	0.0189
GTTGACCA	-0.16
ACCCGGGC	-0.159
ATAAGCAG	-0.0164
ATATCTCG	0.23
CATGCGTC	-0.133
AGCCGAGC	0.167
GAGCGAAC	0.166
CGGTATGA	-0.00246
GAGCGTCA	-0.107

Sequence	PBM E-score
TCAATACA	-0.0389
AGCGAGTG	0.324
AATGAAAG	-0.0378
AAGAGTCA	-0.134
ATAACACC	0.0151
GTGTGCTA	-0.0635
AGTCGACG	0.102
TGGCGCAA	0.0222
GCCGTGAA	-0.117
ATTAACTC	0.0465
AGAGCACC	-0.191
GGTGTCTA	-0.116
GGGTGAAA	-0.0786
AGATTAAG	-0.0939
AGGGTAGC	-0.177
CAATGTCA	0.0639
ACTATCGG	0.0388
ACGTAATC	-0.0452
CTTCCGTA	0.319
TCACGGCA	-0.106
CCGAGGCG	0.0444
ACCCCTGA	0.00437
ATGGATTC	-0.138
AACCCCGG	0.0245
CCACATCA	-0.278

Sequence	PBM E-score
ACTCTGTG	-0.00932
AAGGTCAT	-0.16
CTGTAACA	-0.236
AAAAAAGT	-0.0817
AATTGAGT	0.0269
CGGTGCCC	-0.0958
ATCCAAGG	-0.298
GGATGACA	-0.0953
CTTAGTTA	0.037
ACAGTCGG	0.0297
AGTCCTAA	-0.019
TAACACGA	0.252
TGGACTAA	-0.0691
AGCAAAAA	-0.279
ACACACGT	-0.0743
CTGGGACC	-0.177
CCGCGATC	0.108
CATTCCAC	-0.133
GGCAAGCA	-0.101
ACTGTGAC	-0.232
AACCATAG	-0.0556
CTGCTCAA	-0.201
GGCTTAGA	-0.274
AACTCCAG	-0.154
AATAAGGA	-0.11

Sequence	PBM E-score
ATTTAAAG	-0.126
ACTTCACT	-0.318
AGTTGGCA	-0.0584
GCAATGAA	0.119
GTGATAGA	0.015
GCGGAAGC	0.0467
CAAGCATG	-0.128
CAATTCAA	-0.0186
ACCTTAAT	-0.0853
AATCGGGC	-0.02
CGACGGGC	0.179
CATTCGCG	0.169
CTAACGGC	-0.104
AACTTAGC	-0.215
ACAATCCA	-0.0163
AGATAAAG	-0.0492
ATTTAAAT	-0.00534
GGATTGCC	-0.0306
ACACGAGC	0.275
ATGACTCG	0.0445
ATTTCGGC	0.0899
CCCTTTGC	-0.00471
AGTGTTTA	0.052
CAGCTGCC	-0.256
AGCCAAGA	-0.121

Sequence	PBM E-score
GTCAGTGA	0.0507
TCCGATCA	0.0828
ACATATAT	0.127
CACTACGG	-0.0378
ACGACGGC	0.37
AGTGACGG	-0.278
ACTTTGCC	-0.0146
AGAGAAAA	-0.176
GTATATAA	0.321
ATTGGACG	-0.148
ATGAGATA	-0.134
TCCGAGGA	0.239
CCCGTCTC	0.181
CCGGTCCG	0.114
GGACTTAC	-0.175
GATTGGCA	-0.139
AGCGTATC	0.0945
CGTAGGCC	-0.0393
GCCCTCGA	-0.259
ACGAGCCT	0.407
CTACCCTC	-0.251
ACCAGCAA	0.101
AGCTAGAC	0.0658
ATGGGTTG	-0.0214
CTAAGCAG	-0.11

Sequence	PBM E-score
GCACCCAA	0.00157
TCAATCCA	0.0336
GCGATCAA	0.114
GTCATGTA	0.00064
AAAGAGAC	-0.126
ATGCATCG	0.126
GAATGTTA	0.00854
AGCGTCCG	0.155
AGTGTGAA	0.00525
AATTTAGG	0.104
ACGGCGAC	0.21
GATGCTAA	0.0979
ACTCCGGC	0.0584
AAGCATAA	-0.13
GACAACTA	-0.0257
ATCGTAGC	0.385
AGAGGCAT	0.0809
AGACATAC	-0.11
CGGATTTA	0.128
CCAGCAAC	0.109
ATACAGTA	0.196
CAGCCGCG	0.0836
CCGGGCAG	0.0493
ACCGTGAC	-0.185
ACTTGACC	-0.149

Sequence	PBM E-score
AAAAATGG	-0.0731
TCCATACA	0.00831
CGTGGTAC	0.172
TATTTCCA	-0.00609
CGGAGCCC	-0.234
AGAAGACA	0.011
AAGCGTTG	-0.0699
AGGAGAGC	0.00382
CTATAGCA	-0.145
CATTCAAG	-0.00794
CTACTTAA	-0.0047
GAGTATGC	0.105
CCTCCGTA	0.262
AGTCCTAG	-0.375
GACACGTA	0.0434
GGCTCACA	-0.154
CATGTCGG	-0.0338
CAGCGTAG	-0.0328
AGCGTCTC	-0.221
AAGGACCG	-0.00277
CATCGAGC	-0.0692
CAGTCGTC	-0.109
GAATGGCC	-0.127
CTCCGGTC	0.174
CCTCCTGA	-0.0935

Sequence	PBM E-score
CACGAACA	0.177
ATGTTTGA	-0.0211
TCCTGGCA	-0.072
CATGTATA	0.0485
CGCCGGGA	0.0127
GCGCTCCC	-0.132
ATGCTGTG	0.039
ATAACGTA	0.267
TAAGAGCA	0.131
GCGAATCA	0.167
ATGAGTGG	-0.127
CCAAGGCC	-0.174
GCTTAGAC	-0.291
CAATAAAG	0.0785
ACGCGCAT	0.0479
CCCCTGGA	-0.247
AAATGATT	0.0314
AGATATCC	0.107
ATGTCAGA	-0.229
TCCGTGAA	0.043
CTACTGGA	-0.265
AGCGAACA	0.198
ACGATCGC	0.327
AGGGACAA	-0.166
ACCCCCTA	-0.244

Sequence	PBM E-score
CACTTGAG	-0.0674
GTAAAGGA	0.081
GACCAGAA	-0.0946
ACCAACCG	0.0945
GCGAGGCC	0.251
ACGAATAA	0.305
GCCGGGCC	-0.0972
GGGCCTTA	-0.262
GTTTCGAA	-0.00209
AGGTCTCG	0.105
TCCTTGCA	-0.0745
AGCCCCCA	-0.377
GTACGAAC	0.475
GCAGAACA	-0.161
GCAGGCGC	-0.113
ATTCGAAC	0.184
GCGCACGC	-0.0289
ACTTACGC	-0.137
CGCCCCCG	-0.129
TGGATGAA	0.025
GTCGGGGA	-0.113
GACTCTGA	-0.24
AAGGCCCC	-0.122
ACGAACAA	0.38
AATTAGGG	-0.208

Sequence	PBM E-score
ACTGTGTC	-0.135
GAAGAATA	-0.00026
GCCACACA	-0.285
CACGCACA	0.152
AGTGTAAC	-0.0676
CGGGGACG	-0.21
ACAATCAC	0.0311
AGGGAGCC	-0.306
CTGGCTAA	-0.21
CAATGGTA	0.0577
ACGAGGCG	0.431
GACAATTA	0.0512
CGGAGTAG	-0.0355
CCGAGGAG	0.219
AGATAGCT	-0.0945
AGTGTTTC	0.0244
TGCTCACA	-0.0876
AGTTGAAC	0.0747
AAGAATAC	0.102
